This is one part of the list.

In the experiment the test system is T1, C. trachomatis L2/434/Bu expressing GFP (CTL2-GFP).
T1 construct: L2/434/Bu GFP intracellular growth in HeLa cells
Also noted: species or system HeLa; C. trachomatis total inclusion area by high-content imaging, normalised to DMSO. The note with it: total inclusion area; 28.5 h, 10 µM; inhibitor. The procedure, abridged:
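Imaging read-out: GFP inclusions and Hoechst nuclei captured by high-content imaging after fixation. Inclusion area/number = chlamydial growth; nuclei count = host cell viability. MIC calculated per earlier method.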
As to `CCOc1ccc(S(=O)(=O)N(C)CC(=O)N2CCN(C)CC2)cc1Cl` [CBK269865], the “% of control remaining” value was 49.0275.
On to `O=C(CCCOc1ccccc1)Nc1ccc([N+](=O)[O-])cc1` [CBK263690], for which the “% of control remaining” value was found to be 99.3116.
Take `Cc1nc2cc(Cl)ccc2n1CCO` [CBK110738]: the “% of control remaining” value is reported as 92.6189.
`c1cc(C2CCCCN2Cc2ccc3[nH]ccc3c2)nc(Nc2nccs2)n1` (stereo not shown) [CBK286109]: the “% of control remaining” value is reported as 71.4001.
Turning to `COC(=O)[C@H]1CN(C(=O)c2scnc2C)C[C@@H]1c1ccc(F)cc1` [CBK283520], the “% of control remaining” value was 55.7584.
To `CCCCc1ccc(NC(=O)CSc2nnc(N)s2)c(C)c1` [CBK057659] belongs 99.7207; to `CCCCN1CCCC1c1c[nH]c2ccccc12` (stereo not shown) [CBK023773G], 88.21; to `Cc1cc2nccc(C3CCCN(C(=O)OC(C)(C)C)C3)n2n1` (stereo not shown) [CBK284037], 56.5197.
With `Cn1c(=O)n(-c2cccc(Cl)c2)c(=O)n1C` [CBK116498], the “% of control remaining” value worked out at 88.8358.
For `CS(=O)(=O)c1nc2cccnc2s1` [CBK017260] the value was 45.4628; for `CC(=O)Nc1ccc(N2C(=O)CC(N3CCN(Cc4ccc5c(c4)OCO5)CC3)C2=O)cc1` (stereo not shown) [CBK265217], 121.096.
With `COc1ccc(N2C(=O)c3ccccc3NC2c2cccc(OCC(=O)Nc3ccccc3)c2)cc1` (stereo not shown) [CBK265406], the “% of control remaining” value was 94.0488.
For `Cc1nc(-c2ccncc2)c2c(C)nn(-c3ccc(F)cc3)c2n1` [CBK288545] the value was 85.853; for `CCn1c(=O)n(CC(=O)NC2CCCCC2)c2cccnc21` [CBK283810], 107.609.
To `CN(C)c1cc(=O)c2cc3c(cc2o1)CCC3` [CBK010017] belongs 65.7853; to `COCC1=C(C(=O)OC)[C@H](c2ccc(F)c(F)c2)N(C(=O)NCCCN2CCC(c3cccc(NC(C)=O)c3)CC2)C(=O)N1` [CBK051451C], 102.246.
For `O=C1N(CN2CCN(C(c3ccccc3)c3ccccc3)CC2)c2ccccc2C12OCCO2` [CBK265537] the value was 94.2623; for `CN(C)CCCC(=O)Nc1ccc2ncccc2c1` [CBK159824], 84.5101.
In the case of `O=C(Nc1ccccc1)Nc1ccccc1C(=O)NCc1ccccc1` [CBK265338], the “% of control remaining” value stood at 98.565.
For `CONc1nc(NC(C)(C)C)nc(OCC#N)n1` [CBK263655], the “% of control remaining” value is reported as 108.476.
As for `Cc1cc(NC(=O)c2cc(Cl)sc2Cl)no1` [CBK010872], the “% of control remaining” value was 79.4571.
For `CC1CN(C(=S)Nc2ccc3ccccc3c2)CC(C)O1` (stereo not shown) [CBK004993] the value was 9.814.
To `CC(C)(C)c1ccc(NC(=O)C(=O)NCCCn2ccnc2)cc1` [CBK267358] belongs 89.8913.
As to `COCCn1c(CO)nnc1[C@H]1C[C@@H](NC(=O)c2cc(O)ccc2F)C1` [CBK307698], the “% of control remaining” value is recorded as 49.8312.
`Cc1onc(-c2ccccc2)c1C(=O)n1cccn1` [CBK287274]: the “% of control remaining” value amounted to 91.6708.
To `O=C1COC[C@H]([C@H](O)c2ccc(NC(=O)c3cnccn3)cc2)N1` [CBK289673] belongs 89.2967; to `Cc1nn(C)cc1S(=O)(=O)NCC1(c2ccccc2)CCCC1` [CBK282766], 136.938; to `N#Cc1ccc(-c2nc3cc(Cl)c(F)cc3[nH]2)cc1` [CBK096290], 86.4042.
`Cc1cccc(OCC(=O)N2CCN(S(=O)(=O)c3ccc([N+](=O)[O-])cc3)CC2)c1` [CBK264221]: the “% of control remaining” value was 110.7.
In the case of `COc1cccc2cc(C(=O)NCc3cccc4ccccc34)oc12` [CBK149800], the “% of control remaining” value is given as 95.387.
For `Nc1ncc(-c2ccc(C(=O)N3CCOCC3)cc2)nc1C(=O)Nc1ccccc1` [CBK149153] the value was 86.0347; for `Cc1ccc(S(=O)(=O)NCCSc2nc(-c3ccc([N+](=O)[O-])cc3)c[nH]2)cc1` [CBK268518], 92.1781.
Consider `COc1cc(-c2nnc(SCC(=O)O)n2-c2ccccc2)cc(OC)c1OC` [CBK131695], for which the “% of control remaining” value is 59.7861.
Turning to `CN(CCC1CCOCC1)c1nc2c(c(=O)[nH]1)Cc1ccccc1OC2` [CBK306622], the “% of control remaining” value is listed as 80.1148.
For `CCN(CC(=O)NC(C)(C)C)S(=O)(=O)c1cccc(C#N)c1` [CBK306087] the value was 117.271; for `CS(=O)(=O)c1ccc(-c2cnc(N)c(NCC3CCOCC3)n2)cc1` [CBK063849], 80.9757; for `O=C(Cn1cc(C(=O)NC2CCCC2)ccc1=O)NCC1(c2ccccc2)CCCC1` [CBK286248], 91.3805.
In the case of `CCOC(=O)C(C(C)=O)(N1CCOCC1)N1CCOCC1` [CBK261173], the “% of control remaining” value turned out to be 105.991.
Take `C[C@@H]1CN(C(=O)OCc2nccn2C)C[C@H](C)O1` [CBK200142]: the “% of control remaining” value was 89.577.
For `O=C(CCN1C(=O)c2ccc(Br)cc2C1=O)N1CCN(Cc2ccccc2)CC1` [CBK269238] the value was 89.9353.
To `CN(CCCn1c(=S)[nH]c2ccccc2c1=O)C1CCCCC1` [CBK296642] belongs 83.017; to `CCn1c(CN2CCCC2c2noc(C)n2)nc2cc(F)ccc21` (stereo not shown) [CBK305250], 12.058.
With `CN(Cc1cccnc1)C(=O)Cc1ccc(-n2cccn2)cc1` [CBK297726], the “% of control remaining” value amounted to 87.1981.
To `Cc1ccccc1C(=O)Nc1cc(NC(=O)c2ccccc2C)cc(C(=O)O)c1` [CBK262007] belongs 104.928.
Take `Cc1cccc(C(=O)NCCc2nc3ccccc3[nH]2)c1` [CBK263493]: the “% of control remaining” value is given as 101.415.
On to `O=C(CN1C(=O)c2ccccc2C1=O)Nc1cccc2cccnc12` [CBK261320], for which the “% of control remaining” value is 102.213.
For `O=C(CSCc1ccc(Cl)c(Cl)c1)Nc1ncccn1` [CBK269998] the value was 98.8124.
Take `NS(=O)(=O)c1ccc(NC(=O)CSc2nc3sc4c(c3c(=O)[nH]2)CCC4)cc1` [CBK265554]: the “% of control remaining” value was determined as 122.818.
For `O=C(Cc1cccc(F)c1)NCCn1nc(-c2ccco2)ccc1=O` [CBK283708] the value was 99.3752.
For `O=C(N1CCOCC1)C12CC3CC(CC(C3)C1)C2` [CBK089368] the value was 89.6424.
To `Cc1nc[nH]c1CN(Cc1ccccc1)C1CC(C)(C)NC(C)(C)C1` [CBK283178] belongs 104.684; to `CC(C)(CO)CNc1nc(-c2ccc(F)c(Cl)c2)cnc1N` [CBK063484], 72.4718.

The values above are taken from publication PMC12040169 (PLOS Biology, 2025).
